We go through 108 compounds from PubChem BioAssay AID1240 (Sanford-Burnham Center for Chemical Genomics, 2008).

The campaign covered roughly 50,000 compounds. About 800 (1.6%) showed an effect of 50% or more. Some of the results follow.

The target in this experiment is Bcl-2-like protein 10 (Homo sapiens) (UniProt Q9HD36). As to the kind of experiment: Phenotype converters, Bcl-B/TR3 peptide binding displacement, primary biochemical FP (AID 1240).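 Further: 0% = Bcl-B with tracer peptide and DMSO and 100% = tracer peptide lacking Bcl-B.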 As to conditions: GST-Bcl-B / FITC-TR3 peptide fluorescence polarization; stronger effect = higher value; compound at 3.75 mg/L.
UniProt Q9HD36, sequence (Q9HD36 whole entry, looked up): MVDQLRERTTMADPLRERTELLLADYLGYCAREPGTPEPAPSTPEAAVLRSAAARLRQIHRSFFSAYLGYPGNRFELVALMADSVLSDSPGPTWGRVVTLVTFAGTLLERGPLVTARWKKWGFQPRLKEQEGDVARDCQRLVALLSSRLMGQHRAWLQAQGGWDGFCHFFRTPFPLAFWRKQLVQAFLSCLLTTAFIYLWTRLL
Turning to `Cc1ccc(-c2csc(NC(=O)c3ccc([N+](=O)[O-])c(C)c3)n2)cc1`, the displacement is -4.3%.
The same measure for `CCCCOc1ccc2c(C)c(Cl)c(=O)oc2c1`: 4.6%; for `O=C(CSc1nc2ccccc2[nH]1)Nc1ccc(F)c(Cl)c1`: -7.1%; for `CCOC(=O)C1=C(O)CSC1=Nc1cccc(Cl)c1`: -7.8%.
The same measure for `COC(=O)c1c(NC(=O)c2cccc([N+](=O)[O-])c2)sc2c1CCC2`: 7%.
To `CCc1nc2ccc(Oc3ccc4nc(CC)[nH]c4c3)cc2[nH]1` belongs 12.5%; to `CC(C)C(=O)Nc1cc(C(F)(F)F)cc(C(F)(F)F)c1`, -2.9%.
`O=C(Nc1ccc([N+](=O)[O-])cc1)c1ccc2c(c1)C1C=CCC1C(c1ccc(Cl)cc1)N2` (stereo not drawn): the displacement is -7.2%.
The same measure for `Cc1ccc(-c2ccccc2)n1-c1ccc(C(=O)O)cc1`: 21.4%.
The same measure for `CC(=O)N(C)c1ccc(NC(=O)c2cccc([N+](=O)[O-])c2)cc1`: -0.5%; for `COc1ccc(C2Nc3ccccc3C(=O)N2Cc2ccco2)cc1Cn1nc(C)c([N+](=O)[O-])c1C` (stereo not drawn): 15.8%; for `Nc1nc(-c2ccccc2)cc(N2CCCCC2)n1`: -9%.
The same measure for `CC(C)P(=O)(c1cccc(C(=O)O)c1)C(C)C`: 14.4%; for `CCCC(=O)Nc1ccc(C)cc1[N+](=O)[O-]`: 12.6%; for `COc1ccc(C(=O)O/N=C2/C(=O)N(C)c3ccccc32)cc1[N+](=O)[O-]`: 3%.
Regarding `CCOc1ccc(-n2c(O)c(C=NCCCO)c(=O)[nH]c2=O)cc1`, the displacement was -7.3%.
The same measure for `CC1CN(C)C(c2ccccc2)CC1=O` (stereo not drawn): 9.2%; for `O=C1c2ccccc2C(=O)N1c1ncc(Cc2cccc(C(F)(F)F)c2)s1`: -5.8%; for `CCOc1ccc(C=NNC(=O)CNS(=O)(=O)N2CCOCC2)cc1`: -1.8%.
The same measure for `CS(=O)(=O)N(Cc1ccc(C(=O)N2CCN(c3ccccc3)CC2)cc1)c1ccccc1`: 1.4%.
To `COc1cc(C(C2=C(O)CC(C)(C)CC2=O)C2C(=O)CC(C)(C)CC2=O)cc(OC)c1OC` (stereo not drawn) belongs -7.8%; to `O=C(Nc1cccc([N+](=O)[O-])c1)c1ccc(-c2ccccc2)cc1`, 24.6%; to `O=C(N/N=C/C=N/NC(=O)c1ccccc1Cl)c1ccccc1Cl`, 4.1%.
Regarding `O=C(Cc1ccccc1)Nc1cc(C(=O)O)cc(C(=O)O)c1`, the displacement worked out at 0.4%.
The same measure for `Cc1ccc(C(=O)O/N=C(\N)c2ccc(C)cc2)cc1`: -12.7%; for `COC(=O)c1ccc(/C=C2\SC(=NCc3ccccc3)N(Cc3ccccc3)C2=O)cc1`: 11%.
To `O=C(CCC1CCCC1)Nc1cccc(F)c1` belongs -9.7%.
To `O=C1NN(c2ccccc2)C(=O)/C1=C/c1cccc(F)c1` belongs -4.8%; to `COc1ccc(OCC(=O)Nc2ccc(S(=O)(=O)C(F)F)cc2)cc1`, -1.2%.
As for `O=C(N/N=C/c1ccc(I)cc1)C1CC(=O)N(c2ccccc2)C1` (stereo not drawn), the displacement was -13%.
In the case of `CC(=O)NS(=O)(=O)c1ccc(NC(=O)/C=C/c2ccc(F)cc2)cc1`, the displacement was -5.1%.
To `COc1ccc(C(=O)Nc2cc(C(F)(F)F)ccc2Cl)cc1` belongs 13.2%.
For the compound `CCOC(=O)c1c(-c2ccccc2)oc2ccc(OC(=O)c3cccc([N+](=O)[O-])c3)cc12`, the displacement came out at 10.8%.
As to `CCOc1cccc(C(=O)Nc2ccc(I)cc2Cl)c1`, the displacement was determined as 10.7%.
To `CC(C)(C)c1ccc(C(=O)N2CCCCCC2)cc1` belongs 7.2%; to `CCCCN1C(=O)/C(=C/c2c(NCCCn3ccnc3)nc3c(C)cccn3c2=O)SC1=S`, -17.7%.
To `CCOc1ccccc1N/C(=N/c1nc(C)cc(C)n1)NC(=O)c1ccccc1` belongs -15.9%; to `CN(c1ccc(C(=O)N2CCN(c3ccccc3)CC2)cc1)S(=O)(=O)c1ccccc1`, -0.8%.
To `O=C(Nc1ccc(Cl)cc1)Nc1ccc2c(c1)OCCO2` belongs -28.9%.
For `CCOC(=O)C1=C(C)N=c2s/c(=C\c3ccc(OC)c(O)c3)c(=O)n2C1c1ccc(Cl)cc1` (stereo not drawn), the displacement is -5.3%.
The same measure for `O=C(CC(c1ccccc1)c1ccccc1)N1CCN(c2cccc(Cl)c2)CC1`: -25.1%; for `Cc1ccc(OCC(=O)N2CCN(c3ccccc3)CC2)c(C)c1`: 8%.
To `O=C1NC(=O)/C(=C\c2ccncc2)S1` belongs 11.3%; to `O=C(COc1ccccc1O)NCCN1CCOCC1`, 5%; to `CC1CCN(C(=O)c2cc3n(n2)C(C(F)(F)F)CC(c2ccccc2)N3)CC1` (stereo not drawn), 16%.
To `COC(=O)C1=C(C)N(C)C(C)=C(C(=O)OC)C1c1ccccn1` belongs -11%.
Regarding `CC(C)(C)c1cc(C(=O)N/N=C/C=C/c2ccccc2)n[nH]1`, the displacement was -9.5%.
To `O=C1c2cccc3c4ccccc4n(c23)C(=O)C1(O)O` belongs 7.8%; to `CCOc1ccc(OCC)c(C2C3CCCCC=C3C(C#N)=C(N)C2(C#N)C#N)c1` (stereo not drawn), 11%.
With `COc1ccc(Br)cc1/C=C/C(=O)Nc1cccnc1`, the displacement came to 0.6%.
To `Cc1ccccc1N(CC(=O)NCc1ccncc1)S(=O)(=O)c1ccccc1` belongs 2.7%.
To `O=C(Nc1cccc2ccccc12)c1cc(Br)ccc1Cl` belongs 14.4%.
With `O=C(Nc1cccc2c1C(=O)c1c(NC(=O)c3ccccc3)cccc1C2=O)c1ccccc1`, the displacement was -12.3%.
To `CC(C(=O)c1ccc(-c2ccccc2)cc1)[n+]1ccccc1` (stereo not drawn) belongs 7.5%; to `CC(=O)c1cccc(N2C(=O)C3C4C=CC(C4=C(C)C)C3C2=O)c1` (stereo not drawn), 9%; to `COC(=O)CCC(=O)c1ccc(C(C)(C)c2ccc(C(=O)CCC(=O)OC)s2)s1`, -6.8%.
To `c1coc(Cn2c(-c3ccco3)nc3ccccc32)c1` belongs 5.6%.
As for `CC1CC(O)N(c2ccccc2)C(=S)N1` (stereo not drawn), the displacement worked out at 8.5%.
For `CCC(=O)N1CC23C=CC(CC2CC12CCCCC2)O3` (stereo not drawn), the displacement is -7.4%.
The same measure for `Cc1ccc(NC(=O)c2ccc(Cl)cc2Cl)c([N+](=O)[O-])c1`: 3.6%.
To `O=C(N/N=C/c1c[nH]c2ccccc12)C1CC(=O)N(c2ccccc2)C1` (stereo not drawn) belongs -8.3%; to `Cc1cc2[nH]c(=O)c(CCO)c(C)n2n1`, -5.1%; to `O=C(Nc1nncs1)C(Sc1ccccc1)c1ccccc1` (stereo not drawn), -4.9%.
To `O=C(Nc1ccc(Br)cc1)NS(=O)(=O)c1ccccc1Cl` belongs 4.1%.
Regarding `COC(=O)c1c(NC(=O)/C=C/c2ccccc2)sc2c1C(C(=O)OC)CC2` (stereo not drawn), the displacement was -28.4%.
To `O=C(NCc1ccc(Cl)c(Cl)c1)c1ccc(Br)cc1` belongs 11.4%; to `COc1cccc(C2C(C(=O)Nc3ccccc3)=C(C)N=c3s/c(=C\c4cccs4)c(=O)n32)c1` (stereo not drawn), 79.1%; to `COCCOC(=O)c1c(C)oc2ccc(OC(=O)c3ccc(Cl)cc3)cc12`, 5.4%.
To `COc1ccc(NC(=O)/C(C#N)=C\c2ccc(Sc3ccccc3)o2)cc1` belongs -3.6%.
To `Cc1cccc(/C=N/NC(=O)c2cccc(F)c2)c1O` belongs -5.7%.
For the compound `COc1ccc(O)c(-c2cc(C(F)(F)F)nc(-c3ccccc3)n2)c1`, the displacement turned out to be 25.3%.
To `CC1(C)Cc2c(sc3nc(-c4ccccc4Cl)n(N)c(=O)c23)CO1` belongs 4.3%; to `C=CCN1C(=O)/C(=C/c2ccc(OC(=O)c3ccccc3I)c(OC)c2)SC1=S`, -7.8%.
To `COc1ccc(/C=C/C(=O)c2cccc(OC)c2)cc1` belongs -14.7%.
The same measure for `COc1ccc(CCN2C(=O)C3C4c5ccccc5C(C)(c5ccccc54)C3C2=O)cc1OC` (stereo not drawn): -1.3%; for `Cc1cccc(OCC(=O)N=Nc2c(O)[nH]c3ccc([N+](=O)[O-])cc23)c1`: 20%.
For `Cc1ccc2oc(-c3ccc(NC(=O)Cc4ccccc4)c(C)c3)nc2c1`, the displacement is -6.9%.
To `CC(C)(C)c1ccc(C(=O)Nc2c(F)c(F)c(F)c(F)c2F)cc1` belongs -10.6%; to `COc1cc(/C=C2\C(=O)NC(=O)N(c3ccc(Br)cc3)C2=O)ccc1OCC(=O)O`, -14.2%.
To `O=C(Cc1ccccc1)Nc1ccc(Cl)c(-c2nc3cc(Cl)ccc3o2)c1` belongs -37.9%; to `CCN(CC)c1ccc(/C=C2/SC(=S)N(CC(=O)OC)C2=O)cc1`, 3.1%.
Turning to `COc1ccccc1/C=C1\SC(=S)N(c2cccc(C)c2C)C1=O`, the displacement was -7.3%.
The same measure for `COc1ccc(CC(=O)Nc2nc(-c3ccc4ccccc4c3)cs2)cc1`: -5.1%; for `O=C(Nc1cccc2ccccc12)C1C(c2ccccc2)=C1c1ccccc1`: 4.3%.
The same measure for `Cc1cc(OCC(=O)Nc2ccccc2F)ccc1Cl`: -1.2%; for `CC(C)c1ccc(/C=C2/SC(=O)N(c3ccccc3)C2=O)cc1`: 1.4%.
The same measure for `Cc1nnc(C)n1/N=C\c1cccc2ccccc12`: -1.9%; for `CCOC(=O)c1cccc(NC(=O)COc2ccc(OC)cc2)c1`: -0.9%; for `COc1ccc(CC(=O)Nc2ccc3oc(-c4ccncc4)nc3c2)cc1OC`: -1.5%.
`CCOc1ccc(C2Nc3ccc4ccccc4c3C3=C2C(=O)CC(C)(C)C3)cc1OC` (stereo not drawn): the displacement was 2.8%.
The same measure for `CC(=O)Nc1cc(-c2nc3cc(Cl)cc(Cl)c3o2)ccc1C`: -1.2%.
The same measure for `CCC1(CC)NC(=S)N(c2ccc(C)cc2)N1`: 11.8%; for `CC(C)NC(=O)/C(=C\c1ccco1)NC(=O)c1ccccc1`: 8.2%; for `Cc1c(NC(=O)c2cccs2)cccc1NC(=O)c1cccs1`: -2.3%.
In the case of `O=C(Nc1ccc(N2CCOCC2)cc1)c1cccc([N+](=O)[O-])c1`, the displacement is -5.6%.
The same measure for `CN1C(=O)/C(=C2/SC(=O)N(c3cccc(Cl)c3)C2=S)c2ccccc21`: -5.6%; for `O=C(O)c1ccccc1C(=O)c1ccc(Cl)c(N2C(=O)C3CC=CCC3C2=O)c1` (stereo not drawn): -7.2%.
To `O=C(Nc1ccc(-c2cnc(-c3ccc(NC(=O)C(F)(F)F)cc3)nc2)cc1)C(F)(F)F` belongs 19%.
The same measure for `CCOC(=O)c1sc(NC(=O)c2ccc([N+](=O)[O-])s2)nc1C`: 1.6%; for `COc1ccc(CNC(=O)c2cc3n(n2)C(C(F)(F)F)CC(c2ccc(Cl)c(Cl)c2)N3)cc1` (stereo not drawn): 5.1%.
Turning to `Cc1n[nH]c(C)c1Sc1ccccc1N=Cc1ccc2ccccc2c1`, the displacement worked out at 8.6%.
To `O=C(c1ccc(Cl)c(Cl)c1)N1CCN(C(c2ccccc2)c2ccccc2)CC1` belongs 16.4%; to `CC1CCc2c(sc(NC(=O)/C=C/c3ccc4c(c3)OCO4)c2C(N)=O)C1` (stereo not drawn), 144%.
The same measure for `CCCCCCCNC1CC(=O)N(c2ccc(C(=O)OCC)cc2)C1=O` (stereo not drawn): -4.5%; for `Cc1ccc(/C=C2/SC(=O)N(c3ccccc3)C2=O)cc1`: 3%; for `O=[N+]([O-])c1cccc(S(=O)(=O)NCCc2ccccc2)c1`: 5.8%.
The same measure for `O=C(NCC(c1ccccc1)c1ccccc1)Nc1cccc(Cl)c1`: 1.4%.
`COc1cc(/C=C2\SC(=S)N(CC(=O)N3CCCc4ccccc43)C2=O)cc(OC)c1OC`: the displacement worked out at 91.5%.
